US10299477B2 (priority 2015, dated 2019)

Assays:
Format in all cases: in vivo
Botrytis cinerea = test: Test Example B: Gray mold on tomato; conditions: in vivo
Source text: [Test Example B] Gray Mold on Tomato
Seeds of a test plant (tomato variety: Oogata Fukuju) were planted followed by cultivating until three to five first leaves (true leaves) appeared.

Puccinia recondita = test: Test Example E: Brown rust on wheat; conditions: in vivo
Source text: [Test Example E] Brown Rust on Wheat

Plasmopara viticola = test: Test Example G: Downy mildew on vine; conditions: 250 ppm, sprayed 2.5 ml/pot before inoculation; evaluated 7-10 days after inoculation
Source text: [Test Example G] Downy Mildew on Vine
Seeds of a test plant (grape variety: Neomuscat) were planted followed by cultivating until three to four first leaves appeared. […] After the sprayed dilutions were dried, a zoosporangia suspension (1-2×10^4 zoosporangia/ml) of Plasmopara viticola was inoculated to the plants by spraying.

Alternaia brassicicola = test: Test Example C: Alternaria sooty spot on cabbage; conditions: in vivo
Source text: [Test Example C] Alternaria Sooty Spot on Cabbage
Seeds of a test plant (cabbage variety: Shikidori) were planted followed by cultivating until the cotyledons extended.

[1] = tested on: Blumeria graminis f sp. hordei; test: Test Example D: Powdery mildew on barley; conditions: in vivo
Source text: [Test Example D] Powdery Mildew on Barley
After the sprayed dilutions were dried, conidia of Blumeria graminis f sp. hordei were inoculated to the plants by shaking off.

Row | SMILES | Test B (control value class, gray mold on tomato) (Botrytis cinerea) | Test E (control value class, brown rust on wheat) (Puccinia recondita) | Test G (control value class, downy mildew on vine) (Plasmopara viticola) | Test C (control value class, Alternaria sooty spot on cabbage) (Alternaia brassicicola) | Test D (control value class, powdery mildew on barley) [1]
1 | CCn1c(-c2c(F)cccc2F)c(-c2cc(OC)ccc2Cl)ccc1=O [Compound 582] | H (H shows more than 50% of control values) | H (H shows more than 50% of control values) | H (H shows more than 50% of control values) | H (H shows more than 50% of control values) | H (H shows more than 50% of control values)
2 | CCN1C(=O)CCC(c2cc(F)cc(F)c2Cl)=C1c1c(F)cc(F)cc1F [Compound 583] | H (H shows more than 50% of control values) | H (H shows more than 50% of control values) | H (H shows more than 50% of control values) | H (H shows more than 50% of control values) | H (H shows more than 50% of control values)
3 | CCn1c(-c2c(F)cc(F)cc2F)c(-c2cc(F)cc(F)c2Cl)ccc1=O [Compound 584] | H (H shows more than 50% of control values) | H (H shows more than 50% of control values) | H (H shows more than 50% of control values) | H (H shows more than 50% of control values) | H (H shows more than 50% of control values)
4 | CCn1c(-c2c(F)cc(F)cc2F)c(-c2cc(F)cc(F)c2Cl)cc(Cl)c1=O [Compound 585] | H (H shows more than 50% of control values) | H (H shows more than 50% of control values) | L (L shows 50% or less of control values) | H (H shows more than 50% of control values) | H (H shows more than 50% of control values)
5 | Cn1c(-c2c(F)cc(F)cc2F)c(-c2cc(F)cc(F)c2Cl)cc(Cl)c1=O [Compound 587] | H (H shows more than 50% of control values) | H (H shows more than 50% of control values) | L (L shows 50% or less of control values) | H (H shows more than 50% of control values) | H (H shows more than 50% of control values)
6 | CCn1c(-c2c(F)cc(OC)cc2F)c(-c2cccc(F)c2F)ccc1=O [Compound 588] | H (H shows more than 50% of control values) | H (H shows more than 50% of control values) | H (H shows more than 50% of control values) | H (H shows more than 50% of control values) | H (H shows more than 50% of control values)
7 | CCn1c(-c2c(F)cc(OC)cc2F)c(-c2cccc(F)c2F)cc(Br)c1=O [Compound 589] | H (H shows more than 50% of control values) | H (H shows more than 50% of control values) | L (L shows 50% or less of control values) | H (H shows more than 50% of control values) | H (H shows more than 50% of control values)
8 | CCn1c(-c2c(F)cc(OC)cc2F)c(-c2cccc(F)c2F)cc(Cl)c1=O [Compound 590] | H (H shows more than 50% of control values) | H (H shows more than 50% of control values) | L (L shows 50% or less of control values) | H (H shows more than 50% of control values) | H (H shows more than 50% of control values)
9 | CCOc1cc(F)c(-c2c(-c3ccccc3F)ccc(=O)n2C)c(F)c1 [Compound 591] | H (H shows more than 50% of control values) | H (H shows more than 50% of control values) | H (H shows more than 50% of control values) | H (H shows more than 50% of control values) | H (H shows more than 50% of control values)
10 | CCn1c(-c2c(F)cc(F)cc2F)c(-c2ccc(F)cc2Cl)cc(F)c1=O [Compound 592] | H (H shows more than 50% of control values) | H (H shows more than 50% of control values) | L (L shows 50% or less of control values) | H (H shows more than 50% of control values) | H (H shows more than 50% of control values)
11 | CCn1c(-c2c(F)cc(OC)cc2F)c(-c2ccc(F)cc2Cl)cc(Cl)c1=O [Compound 593] | H (H shows more than 50% of control values) | H (H shows more than 50% of control values) | H (H shows more than 50% of control values) | H (H shows more than 50% of control values) | H (H shows more than 50% of control values)
12 | CCn1c(-c2c(F)cc(F)cc2F)c(-c2ccc(F)cc2Cl)cc(C)c1=O [Compound 594] | H (H shows more than 50% of control values) | H (H shows more than 50% of control values) | H (H shows more than 50% of control values) | H (H shows more than 50% of control values) | H (H shows more than 50% of control values)
13 | CCOc1cc(F)c(-c2c(-c3ccc(F)cc3Cl)cc(Cl)c(=O)n2CC)c(F)c1 [Compound 595] | H (H shows more than 50% of control values) | H (H shows more than 50% of control values) | H (H shows more than 50% of control values) | H (H shows more than 50% of control values) | H (H shows more than 50% of control values)
14 | Cn1c(-c2c(F)cc(F)cc2F)c(-c2ccc(F)cc2Cl)cc(Cl)c1=O [Compound 596] | H (H shows more than 50% of control values) | H (H shows more than 50% of control values) | L (L shows 50% or less of control values) | H (H shows more than 50% of control values) | H (H shows more than 50% of control values)
15 | CCOc1cc(F)c(-c2c(-c3ccccc3F)cc(Cl)c(=O)n2C)c(F)c1 [Compound 598] | H (H shows more than 50% of control values) | H (H shows more than 50% of control values) | H (H shows more than 50% of control values) | H (H shows more than 50% of control values) | H (H shows more than 50% of control values)
16 | CCn1c(-c2c(F)cc(OC)cc2F)c(-c2ccc(F)cc2Cl)cc(C)c1=O [Compound 599] | H (H shows more than 50% of control values) | H (H shows more than 50% of control values) | H (H shows more than 50% of control values) | H (H shows more than 50% of control values) | H (H shows more than 50% of control values)
17 | COc1cc(F)c(-c2c(-c3ccc(F)cc3Cl)cc(Cl)c(=O)n2C)c(F)c1 [Compound 600] | H (H shows more than 50% of control values) | H (H shows more than 50% of control values) | H (H shows more than 50% of control values) | H (H shows more than 50% of control values) | H (H shows more than 50% of control values)
18 | CCn1c(-c2c(F)cc(Cl)cc2F)c(-c2cc(F)ccc2Cl)ccc1=O [Compound 601] | H (H shows more than 50% of control values) | H (H shows more than 50% of control values) | L (L shows 50% or less of control values) | H (H shows more than 50% of control values) | H (H shows more than 50% of control values)
19 | CCn1c(-c2c(F)cc(Cl)cc2F)c(-c2cc(F)ccc2Cl)cc(Cl)c1=O [Compound 602] | H (H shows more than 50% of control values) | H (H shows more than 50% of control values) | L (L shows 50% or less of control values) | H (H shows more than 50% of control values) | H (H shows more than 50% of control values)
